Usually EC50 (read off the curve) stands for the concentration that produces a half-maximal response. Lower therefore signals a more potent agent. What is called Kd is the equilibrium constant for the complex coming apart. A low value points to a tighter complex. As usually defined, the koff is the rate constant with which the complex falls apart. A lower koff goes with a long-lived complex. Broadly, the kon is the rate constant with which the complex forms. The low end stands for slow association, the high end for fast association.

The target of one assay is T1, human CD33-C2-his (human, UniProt P20138 136-260).
T1 construct: expressed in HEK293E; also called hCD33-C2-his; human CD33 protein C2-domain; not shown: His tag
Description: ELISA on coated human CD33-C2-his.

A further assay has as its target T2, human CD33-V-his (human, UniProt P20138 18-144).
T2 construct: expressed in HEK293E; also called hCD33-V-his; human CD33 protein V-domain; not shown: His tag
Description: ELISA on coated human CD33-V-his. (In an ELISA, binding on a coated surface is turned into a signal by an enzyme label.)

A further assay has as its target T3, murine CD33-His protein (murine, UniProt Q63994 18-240, limits assumed).
T3 construct: also called murine CD33 protein
T3 sequence (looked up): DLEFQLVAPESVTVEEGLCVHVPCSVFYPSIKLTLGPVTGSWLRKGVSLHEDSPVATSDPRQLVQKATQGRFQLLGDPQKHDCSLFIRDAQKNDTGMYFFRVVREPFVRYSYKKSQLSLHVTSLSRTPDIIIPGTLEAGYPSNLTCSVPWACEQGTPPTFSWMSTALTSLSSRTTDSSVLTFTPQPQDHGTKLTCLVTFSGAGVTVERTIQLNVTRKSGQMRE
Description: ELISA on coated murine CD33-his.

Assay [1] has as its target T4, human CD33-C2-his protein (human, UniProt P20138 136-260).
T4 construct: also called hCD33-C2-his; Human CD33 protein C2-domain; not shown: His tag
The assay can be described thus: ELISA on coated human CD33-C2-his.

Assay [2] concerns the target T5, human CD33 on U937 cells (endogenous) (human, UniProt P20138).
T5 construct: whole, on cells
Description: FACS, U937 cells.

Assay [3] concerns the target T6, human CD33-his protein (human, UniProt P20138 18-259).
T6 construct: range 18-259; bought protein; also called hCD33-his; recombinant human CD33-his; not shown: His tag
Description: competition ELISA, coated human CD33-his, vs Biotin-C33B904 at EC80; antibody 15.63 nM.

The target of assay [4] is T6, human CD33-his protein. Description: competition ELISA, coated human CD33-his, vs Biotin-C33B904 at EC80; antibody 125.00 nM.
Assay [5] concerns the target T6, human CD33-his protein. The assay can be described thus: competition ELISA, coated human CD33-his, vs Biotin-C33B904 at EC80; antibody 7.81 nM.
For assay [6], the target named is T6, human CD33-his protein. Description: competition ELISA, coated human CD33-his, vs Biotin-C33B904 at EC80; antibody 31.25 nM.
The target of assay [7] is T6, human CD33-his protein. The assay can be described thus: competition ELISA, coated human CD33-his, vs Biotin-C33B904 at EC80; antibody 3.91 nM.
Assay [8] addresses T6, human CD33-his protein. Description: competition ELISA, coated human CD33-his, vs Biotin-C33B904 at EC80; antibody 0.49 nM.
For assay [9], the target named is T6, human CD33-his protein. The assay can be described thus: competition ELISA, coated human CD33-his, vs Biotin-C33B904 at EC80; antibody 1.95 nM.
For assay [10], the target named is T6, human CD33-his protein. Description: competition ELISA, coated human CD33-his, vs Biotin-C33B904 at EC80; antibody 500 nM.
Assay [11] deals with T6, human CD33-his protein. Description: competition ELISA, coated human CD33-his, vs Biotin-C33B904 at EC80; antibody 0 nM (no competitor).
Assay [12] deals with T6, human CD33-his protein. The assay can be described thus: competition ELISA, coated human CD33-his, vs Biotin-C33B904 at EC80; antibody 0.98 nM.
In assay [13] the target is T6, human CD33-his protein. The assay can be described thus: competition ELISA, coated human CD33-his, vs Biotin-C33B904 at EC80; antibody 62.50 nM.
For assay [14], the target named is T6, human CD33-his protein. Description: competition ELISA, coated human CD33-his, vs Biotin-C33B904 at EC80; antibody 0 nM (no competitor). This is another data set of the same source.
Assay [15] addresses T6, human CD33-his protein. Description: competition ELISA, coated human CD33-his, vs Biotin-C33B904 at EC80; antibody 250.00 nM.
Assay [16] concerns the target T6, human CD33-his protein. Description: competition ELISA, coated human CD33-his, vs Biotin-C33B904 at EC80; antibody 500 nM. The source holds these as a separate data set.
In assay [17] the target is T6, human CD33-his protein. The assay can be described thus: competition ELISA, coated human CD33-his, vs Biotin-C33B904 at EC80; antibody 0.98 nM. The source holds these as a separate data set.
Assay [18] concerns the target T6, human CD33-his protein. Description: competition ELISA, coated human CD33-his, vs Biotin-C33B904 at EC80; antibody 62.50 nM. The source holds these as a separate data set.
Assay [19] deals with T6, human CD33-his protein. The assay can be described thus: competition ELISA, coated human CD33-his, vs Biotin-C33B904 at EC80; antibody 250.00 nM. The source holds these as a separate data set.
Assay [20] deals with T6, human CD33-his protein. The assay can be described thus: competition ELISA, coated human CD33-his, vs Biotin-C33B904 at EC80; antibody 15.63 nM. This is another data set of the same source.
Assay [21] concerns the target T6, human CD33-his protein. Description: competition ELISA, coated human CD33-his, vs Biotin-C33B904 at EC80; antibody 3.91 nM. The source holds these as a separate data set.
Assay [22] deals with T6, human CD33-his protein. The assay can be described thus: competition ELISA, coated human CD33-his, vs Biotin-C33B904 at EC80; antibody 31.25 nM. The source holds these as a separate data set.
The target of assay [23] is T6, human CD33-his protein. The assay can be described thus: competition ELISA, coated human CD33-his, vs Biotin-C33B904 at EC80; antibody 125.00 nM. The source holds these as a separate data set.
Assay [24] concerns the target T6, human CD33-his protein. Description: SPR (Biacore), antibody captured on Protein A chip, human CD33-his analyte.
Assay [25] has as its target T6, human CD33-his protein. Description: competition ELISA, coated human CD33-his, vs Biotin-C33B904 at EC80; antibody 7.81 nM. The source holds these as a separate data set.
Assay [26] deals with T6, human CD33-his protein. The assay can be described thus: competition ELISA, coated human CD33-his, vs Biotin-C33B904 at EC80; antibody 1.95 nM. This is another data set of the same source.
Assay [27] has as its target T6, human CD33-his protein. The assay can be described thus: competition ELISA, coated human CD33-his, vs Biotin-C33B904 at EC80; antibody 0.49 nM. This is another data set of the same source.

Chain of human CD33-C2-his (P20138 other isoform, or with tags, fused parts or gaps limits assumed): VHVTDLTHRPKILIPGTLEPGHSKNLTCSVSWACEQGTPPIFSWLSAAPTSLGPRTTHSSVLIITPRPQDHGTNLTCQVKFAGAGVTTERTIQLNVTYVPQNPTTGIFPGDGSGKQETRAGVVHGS
T6 sequence (P20138 18-259 limits assumed): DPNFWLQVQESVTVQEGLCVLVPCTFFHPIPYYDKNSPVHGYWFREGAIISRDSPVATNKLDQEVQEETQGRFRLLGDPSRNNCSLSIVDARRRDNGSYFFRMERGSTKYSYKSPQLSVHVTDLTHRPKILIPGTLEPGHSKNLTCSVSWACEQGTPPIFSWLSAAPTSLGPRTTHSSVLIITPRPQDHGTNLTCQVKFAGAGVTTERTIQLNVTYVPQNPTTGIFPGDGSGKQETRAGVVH
Chain of human CD33-V-his (P20138 other isoform, or with tags, fused parts or gaps limits assumed): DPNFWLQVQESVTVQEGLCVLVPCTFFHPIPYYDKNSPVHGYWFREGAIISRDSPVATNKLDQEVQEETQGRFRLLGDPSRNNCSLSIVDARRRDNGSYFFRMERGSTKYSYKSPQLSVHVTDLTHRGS

B1: S006-NB146-173-H5 (Fc fusion)
chain: EVQLVESGGGLVQPGGSLRLSCAASGSTLSLHSMGWYRQAPGKQRELVAGISRDGDSNYLSSLAGRFTISRDGTKNSLYLQMNSLRAEDTAVYYCNARTSPWSAALWGQGTMVTVSS[letters of human IgG1 Fc with changes left out]
notes: also called humanized VHH-Fc
As for B1, the “EC50 (read off the curve)” value with human CD33-C2-his is approximately 3 nM. The binding result in the assay with human CD33-V-his and with murine CD33-His protein was “no binding (tested: 100 nM)” throughout.

B2: S006-NB146-173-H4 (Fc fusion)
chain: EVQLVESGGGLVQPGGSLRLSCAASGSTLSLHSMGWYRQAPGKQRELVAGISRDGDSNYLSSLAGRFTISRDNAKNSLYLQMNSLRAEDTAVYYCNARTSPWSAALWGQGTMVTVSS[letters of human IgG1 Fc with changes left out]
Consider B2, for which, in assay [1], the binding result is given as “binds”.

B3: S006-NB146-173-H3 (Fc fusion)
chain: EVQLVESGGGLVQPGGSLRLSCAASGSTFSLHSMGWYRQAPGKQRELVAGISRDGDSNYLSSLAGRFTISRDNAKNSLYLQMNSLRAEDTAVYYCNARTSPWSAALWGQGTMVTVSS[letters of human IgG1 Fc with changes left out]
Consider B3, for which the binding result in assay [1] is given as “binds”.

B4: S006-NB146-173-H3 (Fc fusion)
chain: EVQLVESGGGLVQPGGSLRLSCAASGSTFSLHSMGWYRQAPGKQRELVAGISRDGDSNYLSSLAGRFTISRDNAKNSLYLQMNSLRAEDTAVYYCNARTSPWSAALWGQGTMVTVSS[letters of human IgG1 Fc with changes left out]
notes: also called humanized VHH-Fc
Take B4: the binding result with human CD33-C2-his is given as “binds”; with human CD33-V-his, “no binding (tested: 100 nM)”; with murine CD33-His protein, “no binding (tested: 100 nM)”; in assay [2], “binds”.

B5: S006-NB146-173-H2 (Fc fusion)
chain: EVQLVESGGGLVQPGGSLRLSCAASGFTFSLHSMGWYRQAPGKQRELVAGISRDGDSNYLSSLAGRFTISRDNAKNSLYLQMNSLRAEDTAVYYCNARTSPWSAALWGQGTMVTVSS[letters of human IgG1 Fc with changes left out]
As for B5, the binding result in assay [1] is “binds”.

B6: S006-NB146-173-H6 (Fc fusion)
chain: EVQLVESGGGLVQPGGSLRLSCAASGSTLSLHSMGWYRQAPGKQRELVAGISRDGDSNYLSSLAGRFTISRDGTKNSVYLQMNSLRAEDTAVYYCNARTSPWSAALWGQGTMVTVSS[letters of human IgG1 Fc with changes left out]
notes: also called humanized VHH-Fc
On to B6, for which the “EC50 (read off the curve)” value with human CD33-C2-his is approximately 0.4 nM. The binding result with human CD33-V-his and with murine CD33-His protein was “no binding (tested: 100 nM)” each time.

B7: S006-NB146-173-H4 (Fc fusion)
chain: EVQLVESGGGLVQPGGSLRLSCAASGSTLSLHSMGWYRQAPGKQRELVAGISRDGDSNYLSSLAGRFTISRDNAKNSLYLQMNSLRAEDTAVYYCNARTSPWSAALWGQGTMVTVSS[letters of human IgG1 Fc with changes left out]
notes: also called humanized VHH-Fc
Consider B7, for which the binding result in the assay with human CD33-C2-his is given as “binds”; with human CD33-V-his, “no binding (tested: 100 nM)”; with murine CD33-His protein, “no binding (tested: 100 nM)”; in assay [2] it was “binds”.

B8: SGN-33 scFv-hIgG1Fc (Fc fusion)
scFv: QVQLVQSGAEVKKPGASVKVSCKASGYTFTNYDINWVRQAPGQGLEWIGWIYPGDGSTKYNEKFKAKATLTADTSTSTAYMELRSLRSDDTAVYYCASGYEDAMDYWGQGTTVTVSSGGGGSGGGGSGGGGSDIQMTQSPSSLSASVGDRVTINCKASQDINSYLSWFQQKPGKAPKTLIYRANRLVDGVPSRFSGSGSGQDYTLTISSLQPEDFATYYCLQYDEFPLTFGGGTKVEIK[letters of human IgG1 Fc with changes left out]
notes: control antibody as scFv-hFc; variable regions from U.S. Pat. No. 9,453,046
B8: the “OD450 (Biotin-C33B904 signal)” value came to 2.08 with human CD33-his protein [3]; 2.09 with human CD33-his protein [4]; 2.25 with human CD33-his protein [5]; 2.05 with human CD33-his protein [6]; 2.22 with human CD33-his protein [7]; 2.23 in the assay with human CD33-his protein [8]. Further, the “OD450 (Biotin-C33B904 signal)” value with human CD33-his protein [9] is 2.23; with human CD33-his protein [10] it was 2.1; with human CD33-his protein [11] it was 2.3; with human CD33-his protein [12] it was 2.02; with human CD33-his protein [13], 2.06; with human CD33-his protein [14] it was 2.27. Besides, the “OD450 (Biotin-C33B904 signal)” value came out at 2.07 with human CD33-his protein [15]; 2.39 with human CD33-his protein [16]; 2.23 in the assay with human CD33-his protein [17]; 2.3 with human CD33-his protein [18]; 2.31 in the assay with human CD33-his protein [19]; 2.35 in the assay with human CD33-his protein [20]. Also, the “OD450 (Biotin-C33B904 signal)” value with human CD33-his protein [21] is 2.2; with human CD33-his protein [22], 2.27; with human CD33-his protein [23], 2.24; in the assay with human CD33-his protein [25] it was 2.13; with human CD33-his protein [26] it was 2.1; in the assay with human CD33-his protein [27], 2.19. For the same molecule, in the assay with human CD33-his protein [24], the Kd is 7.93 nM. In the assay with human CD33-his protein [24], this molecule gave a koff of 0.00557 s⁻¹. This molecule came in with a kon in the assay with human CD33-his protein [24] of 702000 M⁻¹ s⁻¹.

The record behind these values is US20240124575A1 (SIMCERE ZAIMING PHARMACEUTICAL, published 2024).
